# Experimental data reported in the supplement of paper PMC12645437, “Orthogonal IMiD-Degron Pairs Induce Selective Protein Degradation in Cells” (ACS Chemical Biology, 2025).
# The other results are listed elsewhere or left out.
# Biological target: no compound (DMSO)
# Test: log2 fold change of degron read counts, EGFP-low vs EGFP+ sorted cells; higher = lower degron-EGFP level without compound (poor expression or instability)
# Conditions: compound: DMSO control; 18 h
# 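Also: jurkat cells carrying a lentiviral library of mutant zinc finger degrons fused to EGFP plus mCherry, mCherry+ cells FACS sorted, degron abundance counted by next-generation sequencing.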
row,Sequence,log2 fold change of degron read counts
1,FACNQCGHNFTQKGNLLRHIKL,0.0902
2,FKCDVCGADFTQKGNLLRHIKL,-2.48
3,FGCNQCGAMFTQKGNLLRHIKL,-0.0569
4,FNCNVCGAGFTQKGNLLRHIKL,-0.92
5,FCCEVCGAVFTQKGNLLRHIKL,-1.06
6,FCCEVCGARFTQKGNLLRHIKL,-1.59
7,LMCNQCGFVCTQKGNLLRHIKL,1.09
8,FHCEICGRCFTQKGNLLRHIKL,-0.893
9,LDCEICGFFCTQKGNLLRHIKL,2.21
10,FLCNQCGAYFTQKGNLLRHIKL,0.0812
11,FCCEVCGACFTQKGNLLRHIKL,-0.375
12,FFCSVCGHVFTQKGNLLRHIKL,0.307
13,FSCPICGHPFTQKGNLLRHIKL,-0.373
14,FECDQCGAQFTQKGNLLRHIKL,-2.62
15,LSCEICGFPCTQKGNLLRHIKL,0.179
16,LRCPICGFRCTQKGNLLRHIKL,0.556
17,FMCNICGAPFTQKGNLLRHIKL,0.493
18,FKCEICGAQFTQKGNLLRHIKL,-1.99
19,FKCEVCGARFTQKGNLLRHIKL,-2.46
20,FRCDQCGAYFTQKGNLLRHIKL,-0.836
21,FECNICGASFTQKGNLLRHIKL,-1.36
22,FKCDVCGAQFTQKGNLLRHIKL,-0.953
23,FVCPICGHKFTQKGNLLRHIKL,-1.18
24,FKCPICGHQFTQKGNLLRHIKL,-0.43
25,FECDICGAHFTQKGNLLRHIKL,-2.2

row,Sequence,log2 fold change of degron read counts
1,FHCEICGAGFTQKGNLLRHIKL,-2.11
2,LVCPICGFECTQKGNLLRHIKL,0.11
3,FLCNQCGRRFTQKGNLLRHIKL,0.178
4,FNCNQCGAYFTQKGNLLRHIKL,-0.132
5,FQCEVCGAMFTQKGNLLRHIKL,-1.84
6,FLCDICGASFTQKGNLLRHIKL,-2.52
7,FMCDQCGAVFTQKGNLLRHIKL,-1.11
8,LACPICGFACTQKGNLLRHIKL,0.838
9,LKCNQCGFKCTQKGNLLRHIKL,0.368
10,FWCEICGHVFTQKGNLLRHIKL,0.127
11,FGCNICGARFTQKGNLLRHIKL,0.00155
12,FACPQCGADFTQKGNLLRHIKL,-1.96
13,FECPICGATFTQKGNLLRHIKL,-0.108
14,LYCNQCGFMCTQKGNLLRHIKL,1.14
15,LSCNQCGFPCTQKGNLLRHIKL,0.945
16,LNCNQCGFFCTQKGNLLRHIKL,1.77
17,FICNQCGRDFTQKGNLLRHIKL,-1.2
18,FLCNQCGHMFTQKGNLLRHIKL,-0.487
19,FECNVCGAKFTQKGNLLRHIKL,-1.07
20,FQCNQCGADFTQKGNLLRHIKL,-1.18
21,FACPICGRAFTQKGNLLRHIKL,-0.414
22,FHCDQCGAPFTQKGNLLRHIKL,-2.27
23,FKCPQCGAQFTQKGNLLRHIKL,-1.55
24,FECNICGACFTQKGNLLRHIKL,-0.964
25,FHCNQCGADFTQKGNLLRHIKL,-1.15
